Data taken from PMC4336329 (PLoS ONE, 2015).
Among all 310,000 compounds or so, about 14,000 (4.5%) showed an effect of 50% or more. Effects have a minus sign here. The list shows a part of the results.

molecular target: human ether-à-go-go-related gene (hERG) potassium channel (human, UniProt Q12809); test: primary screen, population patch clamp on CHO cells stably expressing hERG
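Also: peak tail current of the secondary pulse compared with the same well before compound.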

Sequence of human ether-à-go-go-related gene (hERG) potassium channel (Q12809 whole entry, looked up): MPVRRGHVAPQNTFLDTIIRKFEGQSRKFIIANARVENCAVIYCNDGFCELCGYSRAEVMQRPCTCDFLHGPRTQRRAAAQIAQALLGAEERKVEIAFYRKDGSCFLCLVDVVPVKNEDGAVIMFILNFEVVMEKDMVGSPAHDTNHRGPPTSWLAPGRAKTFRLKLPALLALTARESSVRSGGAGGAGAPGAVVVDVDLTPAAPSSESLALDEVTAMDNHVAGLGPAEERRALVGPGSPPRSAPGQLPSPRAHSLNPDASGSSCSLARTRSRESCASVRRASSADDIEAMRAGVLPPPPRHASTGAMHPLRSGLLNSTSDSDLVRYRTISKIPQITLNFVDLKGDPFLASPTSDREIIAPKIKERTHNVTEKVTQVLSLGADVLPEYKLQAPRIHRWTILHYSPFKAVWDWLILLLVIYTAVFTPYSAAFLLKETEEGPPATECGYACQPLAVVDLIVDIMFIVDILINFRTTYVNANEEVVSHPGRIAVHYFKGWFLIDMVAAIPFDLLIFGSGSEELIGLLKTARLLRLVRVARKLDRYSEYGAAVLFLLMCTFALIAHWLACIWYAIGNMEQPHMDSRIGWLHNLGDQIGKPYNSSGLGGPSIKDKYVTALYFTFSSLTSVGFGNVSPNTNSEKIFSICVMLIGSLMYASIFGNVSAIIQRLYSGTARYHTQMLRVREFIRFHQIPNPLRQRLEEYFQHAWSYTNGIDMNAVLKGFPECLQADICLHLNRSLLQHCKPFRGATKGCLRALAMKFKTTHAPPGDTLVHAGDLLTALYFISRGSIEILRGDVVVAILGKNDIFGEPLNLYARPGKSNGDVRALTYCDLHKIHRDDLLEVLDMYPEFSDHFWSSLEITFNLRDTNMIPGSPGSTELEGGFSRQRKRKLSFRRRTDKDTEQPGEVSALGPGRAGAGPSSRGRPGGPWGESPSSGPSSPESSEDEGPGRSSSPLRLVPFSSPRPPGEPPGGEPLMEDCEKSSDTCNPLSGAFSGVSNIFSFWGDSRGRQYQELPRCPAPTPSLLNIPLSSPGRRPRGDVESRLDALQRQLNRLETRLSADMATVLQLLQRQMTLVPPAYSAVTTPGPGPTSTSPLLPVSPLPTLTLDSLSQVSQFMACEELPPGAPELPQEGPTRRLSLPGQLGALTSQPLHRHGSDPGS

SMILES | hERG current change (%, negative = inhibition) at 10uM [%]
CCOC(=O)C1CCN(S(=O)(=O)c2ccc(CC)cc2)CC1 | -18.6
CCOC(=O)c1nc(C)sc1-c1ccnn1S(=O)(=O)c1cccc(Cl)c1 | -22.5
O=C(CCN1C(=O)[C@H]2CC=CC[C@H]2C1=O)NCc1nc(-c2ccc(Cl)cc2)no1 | -14.2
Cc1ccc(CS(=O)(=O)CCC(=O)NCCN2CCCCC2C)cc1 (stereo not drawn) | -2.59
CCOC(=O)C1=C(C)N(CCCC(=O)O)C(=O)NC1c1ccccc1OS(=O)(=O)c1ccc(C)cc1 (stereo not drawn) | -15.2
CCOC(=O)C1CCCN(c2c(NCCCN(C)c3ccccc3)c(=O)c2=O)C1 (stereo not drawn) | -5.19
COc1ccc(NC(=O)C2CCC(=O)N2C(=O)OCc2ccccc2)cc1 (stereo not drawn) | -3.98
CCOC(=O)C1CCCN(S(=O)(=O)c2cn(C)c(=O)n(C)c2=O)C1 (stereo not drawn) | 12.8
COc1ccc(CN2CCN(C(=O)c3cccs3)CC2)cc1.O=C(O)C(=O)O | -7.86
CCN(CC)S(=O)(=O)c1ccc(N2CCCCC2)c(C(=O)Nc2ccccc2N2CCOCC2)c1 | -51.1
CCCC(=O)C1=C(O)C(C(=O)OC)C(C)(C)CC1=Nc1cccc2ccccc12 (stereo not drawn) | -0.911
CCC(=O)NC(=S)Nc1ccc(NC(=O)c2ccc([N+](=O)[O-])cc2)cc1 | 10.2
COc1ccc(Cc2nnc(NC(=O)c3ccc(OC)cc3OC)s2)cc1 | 5.76
COCCN1C(=O)N(c2cccc(C)c2)C(=O)C1CC(=O)Nc1cc(OC)cc(OC)c1 (stereo not drawn) | 10.2
C=C1C(=O)O[C@H]2[C@H]1[C@H](OC(=O)CC(=O)O[C@@H]1C[C@@H](C)[C@@H]3C=CC(=O)[C@@]3(C)[C@H]3OC(=O)C(=C)[C@H]13)C[C@@H](C)[C@H]1C=CC(=O)[C@]12C | 25.3
Cc1ccc(CNC(=O)c2cc(C)nn2-c2ccccc2)cc1 | -15
CCC(NC(=O)C1CCCC1)c1ccc(C)cc1 (stereo not drawn) | 13
O=C(Cn1cc(Cl)ccc1=O)c1ccc(Cl)cc1 | 11.7
O=C(CSc1ncnc2c1cnn2-c1ccccc1)Nc1ccccc1 | 0.835
CC(NC(=O)CN(c1ccccc1F)S(C)(=O)=O)c1ccccc1 (stereo not drawn) | -1.82
Cc1cccc(C(=O)NCC(=O)NCCSc2ccc(Br)cc2)c1 | -7.38

SMILES | hERG current change (%, negative = inhibition) at 10uM [%]
COc1ccc(F)cc1CSc1nnnn1-c1ccc(O)cc1 | -32.1
COC(=O)c1ccccc1S(=O)(=O)N1CCC(C(=O)OC(C)C(=O)Nc2ccc(NC(C)=O)cc2)CC1 (stereo not drawn) | -14.6
CCCn1nc2cc(C(=O)NCC34CC5CC(CC(C5)C3)C4)ccc2c1OCC | -11.3
O=C(c1ccncc1)N1CCN(C(=O)c2cccc3ccccc23)CC1 | 14
C/C(=N\N1CCN(Cc2ccc(C)cc2)CC1)c1ccco1 | -67.6
CCOC(=O)[C@H]1[C@H]2COc3ccc(OC)cc3[C@@H]2N2C(=O)CN(C)C(=O)[C@@]12C | 0.268
CN1C(=O)N(C)C(=O)C2(Cc3c(ccc4ccccc34)N(C)C2)C1=O | 0.124
CCCCNC(=O)C(c1ccc(OCC(=O)OC)c(C(=O)OC)c1)N(CCOC)C(=O)CCCCCN1C(=O)NC(c2ccc(-c3ccccc3)cc2)C(C(=O)OCc2ccccc2)=C1C (stereo not drawn) | 4.15
Clc1ccccc1Nc1nnc(-c2ccncc2)s1 | -6.07
COCCn1c(NC(=S)NC(=O)C2CC2)cc(=O)[nH]c1=O | 21.6
O=C(/C=C/c1ccc(OC(F)F)cc1)Nc1cccc(S(=O)(=O)N2CCOCC2)c1 | 14.2
O=C(Nc1cc(C(F)(F)F)ccc1N1CCOCC1)c1ccco1 | 6.93
Cc1ccc(CNC(=O)c2cn(C)c3ccc(S(=O)(=O)N4CCOCC4)cc3c2=O)cc1 | -9.75
CC(=O)N1CCN(c2ccccc2NC(=O)COc2ccc(Br)cc2)CC1 | -9.2
COc1ccc(/C=N\NS(=O)(=O)c2ccc(C)cc2)cc1COc1ccccc1[N+](=O)[O-] | 3.23
CCN(CC)S(=O)(=O)c1ccc(N2CCOCC2)c(NS(=O)(=O)c2ccc(C)c(C)c2)c1 | -7.03
COc1ccc(NC(=S)NC(NC(=O)c2cccc(C)c2)C(Cl)(Cl)Cl)c([N+](=O)[O-])c1 (stereo not drawn) | 3.92
Cc1c(Cl)cccc1NC(=O)COC(=O)Cc1ccsc1 | 2.74
C[C@]12CCC(=O)C=C1C=C[C@@H]1[C@@H]2CC[C@@]2(C)[C@H]1CC[C@@]21CCC(=O)O1 | -31.8
COc1ccc(Cl)cc1NC(=O)COc1ccc2c(c1)OCO2 | 12.7
CC1(C)C(=O)N(c2ccccc2Cl)C(=O)c2ccccc21 | -18.2

SMILES | hERG current change (%, negative = inhibition) at 10uM [%]
NNC(=O)C1CC1(c1ccccc1)c1ccccc1 (stereo not drawn) | 5.98
CCCC[n+]1ccn(-c2nc3ccccc3nc2[N-]S(=O)(=O)c2ccc(Br)cc2)c1 | -7.79
CC1=NN(c2ccc(C(=O)O)cc2)C(=O)/C1=C/c1ccc(-c2ccccc2F)o1 | 19.3
CC(=O)Nc1ccc(NS(=O)(=O)Cc2ccccc2)cc1 | 13.3
Cc1ccc(SCc2nnc(NC(=O)c3ccccc3)s2)cc1 | -6.11
O=C(Nc1cc([N+](=O)[O-])ccc1O)c1cccc(C(=O)Nc2cc([N+](=O)[O-])ccc2O)c1 | 19.1
O=C(NCc1cccs1)C(=O)NCC(c1ccco1)N1CCN(c2ccccc2)CC1 (stereo not drawn) | -1.97
COc1ccc(OC)c(N(/C(N)=N/c2nc(C)cc(C)n2)S(=O)(=O)c2ccc(NC(C)=O)cc2)c1 | 7.96
COc1ccc(NC(=O)CNC(=O)C23CC4CC(CC(C4)C2)C3)c(OC)c1 | -13.5
Cc1ccc(C2=NCCn3c2c2ccc([N+](=O)[O-])cc2[n+]3[O-])cc1 | -7.51
CC(O)[C@H]1CNC(=O)C(=O)N1CCC12CC3CC(CC(C3)C1)C2 (stereo partly drawn) | 7.45
CC1(C)OC(=CC=Nc2ccc(Cl)cc2)OC1(C)C | 2.47
CC(=O)NC1=NN(c2ccccc2)C(=O)C1 | 17.3
Cc1ccc(CN(C)C(=O)C2CCC(=O)N(CC3CCCCC3)C2)o1 (stereo not drawn) | 10.3
Cc1cc(NC(=O)COc2ccc(Cl)cc2Cl)n(CCC#N)n1 | -19
CC(NC(=O)c1cc(-c2ccccn2)nc2ccc(Cl)cc12)C1CCCO1 (stereo not drawn) | 3.95
Nc1ccccc1C#CC(=O)c1ccccc1 | 17.4
CCOCCOC(=O)C(C)Oc1ccc(Oc2ncc(Cl)cc2Cl)cc1 (stereo not drawn) | 5.99
O=C(c1cc([N+](=O)[O-])ccc1N1CCCC1)N1CCCCC1 | 9.96
O=C(/C=C/c1cccs1)NCc1ccccc1 | -2.08
CCCCC1C(C#N)=C(C)NC2=C1C(=O)CC(C)(C)C2 (stereo not drawn) | -9.68

SMILES | hERG current change (%, negative = inhibition) at 10uM [%]
Cc1ccc(NC(=S)NNS(=O)(=O)c2ccc3ccccc3c2)cc1Cl | 5.28
COc1ccc(-c2nc(-c3ccccc3)c(-c3cccs3)[nH]2)cc1OC | 8.81
CCC(C)n1c(SCC(=O)NC2CCS(=O)(=O)C2)nc2ccccc2c1=O (stereo not drawn) | -13.8
C=CCSc1nncn1/N=C/c1ccc(OC)cc1 | -32.1
CC(=O)Nc1ccc(N/C(N)=N/c2nc(C)cc(C)n2)cc1 | 14
COc1ccc(Nc2nc(N)c(C(=O)c3ccc(F)cc3)s2)cc1 | 25.9
c1ccc(C2CCC(N3CCN(c4ccccc4)CC3)CC2)cc1 (stereo not drawn) | -25.6
COc1ccc(NC(=O)c2noc3c2CCCCC3)cc1 | -0.673
CC(=O)c1cccc(NC(=O)CSc2nc(C3CC3)nc3ccccc23)c1 | -10
CNC(=O)c1ccccc1S(=O)c1ccccc1COC(C)=O (stereo not drawn) | 3.15
Cc1ccc2nc(NC(=O)c3ccc(OCC4CCCO4)cc3)sc2c1 (stereo not drawn) | -3.89
COc1ccc(OC(=O)N2CCOCC2)cc1 | 0.314
Cc1c(CC(=O)N2C[C@H]3C[C@@H](C2)c2cccc(=O)n2C3)c(=O)oc2c(C)c(O)ccc12 | 4.94
CCN(CC)CCNc1ccc(Cl)cc1[N+](=O)[O-].Cl | -61.6
O=C(NC1CCOCC1)C1CCC(=O)N(Cc2ccc(Cl)cc2)C1 (stereo not drawn) | 6.46
COc1ccc(-n2nnnc2CNC(=O)C(=O)c2c[nH]c3ccccc23)cc1 | 6.27
Nc1ccc2oc(-c3ccccc3Cl)cc(=O)c2c1O | -9.02
Cc1ccc(S(=O)(=O)NN2C(=O)/C(=C/c3ccccn3)SC2=S)cc1 | -5.43
O=C(Nc1ccccc1F)c1cc(S(=O)(=O)N2CCOCC2)cs1 | 5.76
Cc1ccc(F)cc1CNC(=O)C1CCC(=O)N(CCc2ccccc2)C1 (stereo not drawn) | -37.8
CC(=O)Nc1ccc(NC(=O)c2ccc(NS(=O)(=O)c3cccc4cccnc34)cc2)cc1 | 24.4
